Measured values published in the supplement of paper PMC4967469.

How the values were obtained:
Assay in all cases: Viability of human cancer cell lines after 72 h of drug (GDSC screen)
[1] = compound: COc1cc(N2CCC(N3CCN(C)CC3)CC2)ccc1Nc1ncc(Cl)c(Nc2ccccc2S(=O)(=O)C(C)C)n1 [NVP-TAE684]; details: top dose 2 µM
Procedure: (§1)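 Human cancer cell lines in 384-well plates, medium with 10% serum, drug for 72 h over a 256-fold dose range (nine 2-fold or five 4-fold steps up to the top dose). Adherent lines were fixed and stained with the nucleic acid dye Syto60, suspension lines read with resazurin; signal relative to control wells, capped at 0 and 100%. One two-parameter sigmoid per drug and line, fitted in a mixed model over all curves with the slope shared within a line.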

[2] = compound: Cc1sc2c(c1C)C(c1ccc(Cl)cc1)=N[C@@H](CC(=O)OC(C)(C)C)c1nnc(C)n1-2 [JQ1]
Procedure: as §1

[3] = compound: COC(=O)[C@H](CCSC)NC(=O)c1ccc(NC[C@@H](N)CS)cc1-c1ccccc1 [FTI-277]; details: top dose 1.024 µM; top dose inferred
Procedure: as §1

[4] = compound: COCC[n+]1c2c(n(Cc3cnccn3)c1C)C(=O)c1ccccc1C2=O [YM155]; details: top dose 5.12 µM
Procedure: as §1

[5] = compound: c1ccc2c(CCNc3ccc(Nc4ccncc4)cc3)c[nH]c2c1 [JNJ-26854165]; details: top dose 10 µM
Procedure: as §1

[6] = compound: OCCCNc1cc(-c2ccnc(Nc3cccc(Cl)c3)n2)ccn1 [CGP-60474]; details: top dose 0.256 µM; top dose inferred
Procedure: as §1

[7] = compound: CC1(C)CNc2cc(NC(=O)c3cccnc3NCc3ccncc3)ccc21 [AMG-706]; details: top dose 2 µM; top dose inferred
Procedure: as §1

[8] = compound: C[C@]1(O)C[C@@H](c2nc(-c3ccc4ccc(-c5ccccc5)nc4c3)c3c(N)nccn32)C1 [OSI-906]; details: top dose 2.56 µM; top dose inferred
Procedure: as §1

[9] = compound: CC1=C2C[C@H]3[C@@H](CC=C4C[C@@H](O)CC[C@@]43C)[C@@H]2CC[C@]12O[C@@H]1C[C@H](C)CN[C@H]1[C@H]2C [Cyclopamine]; details: top dose 16 µM; top dose inferred
Procedure: as §1

[10] = compound: O=C(/C=C/c1cccc(S(=O)(=O)Nc2ccccc2)c1)NO [Belinostat]; details: top dose 20 µM; top dose inferred
Procedure: as §1

[11] = compound: Cc1ccc(C(=O)N(CCCN)[C@@H](c2nc3cc(Cl)ccc3c(=O)n2Cc2ccccc2)C(C)C)cc1 [SB-715992]; details: top dose 0.128 µM; top dose inferred
Procedure: as §1

[12] = compound: CN1CCN(c2ccc([N+](=O)[O-])c3no[n+]([O-])c23)CC1 [NSC-207895]; details: top dose 20 µM; top dose inferred
Procedure: as §1

[13] = compound: CC(=O)O[C@@]12CO[C@@H]1C[C@H](O)[C@@]1(C)C(=O)[C@H](O)C3=C(C)[C@@H](OC(=O)[C@H](O)[C@@H](NC(=O)OC(C)(C)C)c4ccccc4)C[C@@](O)([C@@H](OC(=O)c4ccccc4)[C@H]21)C3(C)C [Docetaxel]; details: top dose 0.0125 µM
Procedure: as §1

[14] = compound: CCOc1nc(NC(=O)Cc2cc(OC)ccc2OC)cc(N)c1C#N [JNK Inhibitor VIII]; details: top dose 10 µM; top dose inferred
Procedure: as §1

[15] = top dose 1 µM, screen: GDSC drug entry 1218, top dose inferred
[16] = top dose 2.56 µM, screen: GDSC drug entry 163

| Cell Line | AUC [1] | IC50 [1] | AUC [2, 15] | IC50 [2, 15] | AUC [2, 16] | IC50 [2, 16] | AUC [3] | IC50 [3] | AUC [4] | IC50 [4] | AUC [5] | IC50 [5] | AUC [6] | IC50 [6] | AUC [7] | IC50 [7] | AUC [8] | IC50 [8] | AUC [9] | IC50 [9] | AUC [10] | IC50 [10] | AUC [11] | IC50 [11] | AUC [12] | IC50 [12] | AUC [13] | IC50 [13] | AUC [14] | IC50 [14] |
| --- | --- | --- | --- | --- | --- | --- | --- | --- | --- | --- | --- | --- | --- | --- | --- | --- | --- | --- | --- | --- | --- | --- | --- | --- | --- | --- | --- | --- | --- | --- |
| MFH-ino (soft tissue, adherent) | 0.615 | 274 nM | 0.977 | > 1000 nM | 0.844 | 2330 nM | 0.98 | > 1020 nM | 0.039 | < 20 nM | 0.875 | > 10000 nM | 0.659 | 48.1 nM | 0.982 | > 2000 nM | 0.966 | > 2560 nM | 0.966 | > 16000 nM | 0.549 | 1740 nM | 0.961 | > 128 nM | 0.879 | > 20000 nM | 0.624 | 1.82 nM | 0.968 | > 10000 nM |
| NCI-H526 (small cell lung carcinoma, suspension) | 0.907 | > 2000 nM | 0.987 | > 1000 nM | 0.567 | 241 nM | 0.986 | > 1020 nM | 0.025 | < 20 nM | 0.948 | > 10000 nM | 0.849 | 180 nM | 0.989 | > 2000 nM | 0.862 | 2040 nM | 0.989 | > 16000 nM | 0.288 | 326 nM | 0.817 | 67.4 nM | 0.973 | > 20000 nM | 0.849 | 8.77 nM | 0.988 | > 10000 nM |
| RXF393 (kidney, adherent) | 0.708 | 614 nM | 0.972 | > 1000 nM | 0.936 | > 2560 nM | 0.961 | > 1020 nM | 0.052 | < 20 nM | 0.782 | 6020 nM | 0.548 | 22.8 nM | 0.952 | > 2000 nM | 0.904 | > 2560 nM | 0.975 | > 16000 nM | 0.364 | 453 nM | 0.861 | > 128 nM | 0.743 | 8320 nM | 0.687 | 3.24 nM | 0.961 | > 10000 nM |
| KARPAS-45 (lymphoblastic leukaemia, suspension) | 0.822 | 919 nM | 0.991 | > 1000 nM | 0.561 | 227 nM | 0.991 | > 1020 nM | 0.017 | < 20 nM | 0.934 | > 10000 nM | 0.814 | 111 nM | 0.991 | > 2000 nM | 0.954 | > 2560 nM | 0.974 | > 16000 nM | 0.086 | < 78.1 nM | 0.549 | 10.7 nM | 0.851 | 11500 nM | 0.944 | > 12.5 nM | 0.989 | > 10000 nM |

By IC50 is meant the dose at which the fit gives 50% viability; where the fit passes the top or lowest dose, that dose stands as a limit. For AUC the same curve is integrated over the 256-fold range of doses and scaled to a fraction; it is 1 without any effect and falls as sensitivity rises. For part of these data: The top dose, if marked as inferred, comes from the curve model; the source does not state it. For part of these data: Drugs with an entry number were screened twice under separate entries, and the two screens often disagree.
